# Assay results taken from the supplement of paper PMC10126150.
# Values marked as one replicate rest on one cluster of the flow cell; about a third of the high ones do not repeat.
# Tested on: ATP
# Assay: switch fluorescence ratio, 500 uM ATP over buffer (Cy3 cluster intensity, sum of 5 cycles each) (fold (ratio)); higher = stronger signal-on switching upon ATP binding; sequences stand for … in TCGTCGGCAGCGTCAGATGTGTATAAGAGACAGTTTTTTTTTTTTTTTTTTTTTTTTT…TC
# Details: aptamer strand: ATP DNA aptamer (quencher-CACCTGGGGGAGTATTGCGGAGGAAGG + anchor), 100 nM annealed; ATP concentration: 500 uM; one replicate
# Outline: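 The fluorescence ratio divides summed target-cycle Cy3 intensity by summed buffer-cycle Cy3 intensity for each cluster and is averaged per switch-domain sequence. Cy3-labelled switching-strand clusters on a modified Illumina MiSeq flow-cell were annealed to 100 nM quencher-labelled ATP aptamer, then imaged in selection buffer and again after 15 min with 500 uM ATP at 22 °C. Five such cycles were run, with NaOH stripping and re-annealing between them, and clusters outside 100-1000 RFU were excluded.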
# 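Note: ATP exposure 15 min at 22 °C before imaging.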
row,Sequence,switch fluorescence ratio
1,ATCGGGCCCG,1
2,TAGCCTATGG,0.974
3,CAGGCACCGT,1.03
4,GAGGCTGAGG,1.01
5,GGGTCTTCGG,0.999
6,TAGGTTCAGG,1.02
7,GGACTATCCT,0.994
8,CCTTTACAGT,1.06
9,ATGTTCCCTT,0.999
10,GAGGTTGGTC,1.02
11,AGTTAGTTTA,0.999
12,TATATGGACG,0.975
13,TAATGTTAT,0.974
14,GCCTGCCGGC,1.05
15,GGCGTGTATT,1
16,CTTAGTCATA,1.02
17,TTAGGCACGG,0.991
18,CTTGTGTCGG,1
19,TCGGCATGTT,0.985
20,TGCCATTAGA,0.996
21,TGTGTTGGCA,1.02
22,CCATAGACAT,1.14
23,GTTTTGAAAG,1.02

row,Sequence,switch fluorescence ratio
1,GCTTGCATCC,1.01
2,CCGGCAACTA,2.93
3,GTCATAGTCG,0.969
4,GTAACTCTGT,0.984
5,ACGGGCTTGT,0.991
6,TAATGTTT,0.994
7,CTCGAGAGGA,1.04
8,TAATAATCAT,1.05
9,GCATGTGGAA,1
10,CCTTCTATTC,1.15
11,CGAGATAACA,0.963
12,GCGCAAAGAT,0.985
13,TTAGTTAA,1.02
14,AGACGGCCTG,1.03
15,TATATTTATT,0.982
16,CGTAACGCTT,1.06
17,GTAACCCGGG,1.04
18,TGAAATGTGT,1.03
19,TACCCGTGGA,1.01
20,TTATAATGAC,0.931
21,CGAATCAGCT,0.978
22,GTTGACCACT,0.987
23,TCGGCTGCGA,1.26

row,Sequence,switch fluorescence ratio
1,AAAATTCTGT,0.996
2,TACGGGGTAT,0.972
3,TGGAATCTAG,1
4,CAGAAGATAA,1.02
5,GTGCAGCGTT,1.05
6,GGACAACGTG,0.947
7,CAGCCATAAT,1.05
8,ATGAGGTTAA,1.05
9,CCAGCAGGGC,1.57
10,CTGGCCAGGC,1.01
11,GCTGCAGCAG,1.05
12,CGCCGTTTTA,1.01
13,CGCTTTCGTA,1.01
14,TGGGTAGTTA,0.999
15,ATCGCCTCGG,0.997
16,CGCCTTTTTA,1
17,GAAAGCTTAT,1.04
18,GTGGTAGCTC,1.02
19,AGTTAAACTA,1.02
20,TGCTCCACAT,2.3
21,GTCCCATGGA,0.97
22,GTTGTCATAT,0.967
23,AGCGTTTGAG,1.01

row,Sequence,switch fluorescence ratio
1,CGCCGGGGAG,0.998
2,CATTGCAACG,1.01
3,CCCCCGCATT,3.01
4,CCTACCTCCT,1.77
5,GGTGTCTTCT,0.969
6,AGCTTGGCCT,1
7,TAGGTCAGCG,1.01
8,GTCCTGCCGG,1.07
9,CAGGCGGCCG,1.03
10,GATATATTAA,1.01
11,CTAGAATGGG,0.979
12,CTGTGTTTGC,1.01
13,CTACCGCCGT,1.07
14,AGGTGTGAGT,0.997
15,ATTACGTCCG,1.13
16,TAGTCACTGT,1.06
17,CGGATTTAAA,0.887
18,AATGGTTCC,1.05
19,ACGCCATCGG,0.979
20,TTCCGGAATG,2.42
21,ATCAGATATT,0.986
22,ACGCTCAGG,1.17
23,AATGCCTTGA,1.03

row,Sequence,switch fluorescence ratio
1,TTAGCGGGTC,1.03
2,TGACTTCATC,1.11
3,CACACGCTCT,1.04
4,GTGCATAGGT,0.973
5,CACGGATTCC,0.994
6,CGTACTAGGA,1.02
7,TATGCGTTAC,2.74
8,TTCAAAACAA,0.974
9,GGTCGGTTCC,1.06
10,CGTTGTTCCA,0.981
11,GCTCATCAAT,1.63
12,AGTTCGGCCG,1.06
13,TTCCCCTTTT,0.968
14,GCGGGGCGT,0.973
15,ACAGGGAAGG,1.05
16,CGCGCGTTGT,1.05
17,CCTGTGGGGA,1
18,AGTGTCTGTG,0.95
19,AAGCGATGCT,1.11
20,ACTAAACTTA,1.06
21,GTACTCGCTT,0.973
22,ATAAAGGTG,1.34
23,AAGGTTACAG,1.01

row,Sequence,switch fluorescence ratio
1,TATTAGTCCC,1.03
2,GAGCGCGCGT,0.98
3,GCGTGACGCC,0.997
4,ATGGGCGTGT,1.03
5,TAGCTTGTGA,1.02
6,CGAGAGGCAG,0.999
7,TGGAATGTCA,0.959
8,TTGGGTGAAT,1
9,TAGTGATGCT,0.948
10,CTCCATGCGC,1.8
11,CGATTTGTTT,0.983
12,TAGAAGATTC,0.994
13,CGTTATGTTT,1.04
14,TAGTACAATC,0.983
15,TGGGCCACGG,1.1
16,TACTGAAGTG,0.97
17,TGATTTGTT,0.986
18,ATAGTCAGT,1.01
19,GATTGTATTT,0.987
20,GATGTATCTT,0.976
21,TGCTTCTAGC,1.02
22,GGCCTGGGGA,0.995
23,TTTCCTGAAT,1.01

row,Sequence,switch fluorescence ratio
1,ATTCATCTGT,1.02
2,GAATATAAC,1.01
3,CTGCCTAAAA,1.04
4,GCGTGGTAGG,1.03
5,CTACAGTTTA,1
6,TAAGTTTATT,1.02
7,ATGCAGAGGT,0.988
8,CCATTCCCCA,1.08
9,TGCCGCGGAC,1.03
10,ATTCAATCCG,1.09
11,TAGTAGTGT,1
12,GGTTGATGAC,1.01
13,GGTCTTGCAG,0.968
14,TTGACATTCC,2.24
15,GGATCCTTTG,0.995
16,GACCGACTGT,1.14
17,TAAACTCTTG,1
18,GAATGCAAAC,2.61
19,TCCACTCTCT,0.98
